Results are given in words; binding and its absence hold for the method and conditions named. Some binding calls cover weakened binding; strength is not graded here. Tags and fused reporters may be left off the sequences shown.
Columns and labels:
Test in all cases: knocksideways (recruitment to the mitochondrial surface, fluorescence microscopy); NPHP-mCh-mito bait on the mitochondrial surface co-expressed with EGFP-tagged nucleoporin in COS-7 cells; fixed 24 hours post-transfection
[1] = biological target: T1, NPHP2-mCh-mito (UniProt Q9Y283)
T1 sequence: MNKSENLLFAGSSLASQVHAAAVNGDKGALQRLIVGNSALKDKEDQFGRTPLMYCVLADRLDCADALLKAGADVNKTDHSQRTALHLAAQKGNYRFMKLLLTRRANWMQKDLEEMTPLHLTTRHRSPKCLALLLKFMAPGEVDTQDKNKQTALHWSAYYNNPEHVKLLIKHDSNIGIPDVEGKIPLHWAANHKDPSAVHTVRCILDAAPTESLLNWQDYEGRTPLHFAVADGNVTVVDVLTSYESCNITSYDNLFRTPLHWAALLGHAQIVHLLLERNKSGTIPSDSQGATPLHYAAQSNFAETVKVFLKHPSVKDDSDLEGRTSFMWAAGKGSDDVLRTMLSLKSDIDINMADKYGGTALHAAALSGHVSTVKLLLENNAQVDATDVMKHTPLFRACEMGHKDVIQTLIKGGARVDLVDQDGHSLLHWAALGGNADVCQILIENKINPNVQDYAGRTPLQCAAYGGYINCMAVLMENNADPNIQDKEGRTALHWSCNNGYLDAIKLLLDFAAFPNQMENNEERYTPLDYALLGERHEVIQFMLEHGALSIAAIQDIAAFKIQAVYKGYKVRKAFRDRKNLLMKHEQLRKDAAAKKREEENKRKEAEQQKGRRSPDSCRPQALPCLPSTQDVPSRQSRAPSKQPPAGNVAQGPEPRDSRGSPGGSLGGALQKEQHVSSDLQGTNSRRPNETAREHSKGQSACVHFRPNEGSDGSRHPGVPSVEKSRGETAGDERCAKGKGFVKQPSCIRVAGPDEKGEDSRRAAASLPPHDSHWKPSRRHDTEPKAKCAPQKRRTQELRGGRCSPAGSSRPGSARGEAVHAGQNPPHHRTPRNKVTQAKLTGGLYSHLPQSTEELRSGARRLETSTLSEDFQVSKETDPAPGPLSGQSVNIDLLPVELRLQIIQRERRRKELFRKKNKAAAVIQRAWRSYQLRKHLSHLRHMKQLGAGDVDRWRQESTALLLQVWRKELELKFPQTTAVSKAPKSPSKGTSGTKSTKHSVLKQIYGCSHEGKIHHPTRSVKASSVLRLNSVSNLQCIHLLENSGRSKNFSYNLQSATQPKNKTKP

[2] = biological target: T2, NPHP5-mCh-mito (mouse) (UniProt Q8BP00)
T2 sequence: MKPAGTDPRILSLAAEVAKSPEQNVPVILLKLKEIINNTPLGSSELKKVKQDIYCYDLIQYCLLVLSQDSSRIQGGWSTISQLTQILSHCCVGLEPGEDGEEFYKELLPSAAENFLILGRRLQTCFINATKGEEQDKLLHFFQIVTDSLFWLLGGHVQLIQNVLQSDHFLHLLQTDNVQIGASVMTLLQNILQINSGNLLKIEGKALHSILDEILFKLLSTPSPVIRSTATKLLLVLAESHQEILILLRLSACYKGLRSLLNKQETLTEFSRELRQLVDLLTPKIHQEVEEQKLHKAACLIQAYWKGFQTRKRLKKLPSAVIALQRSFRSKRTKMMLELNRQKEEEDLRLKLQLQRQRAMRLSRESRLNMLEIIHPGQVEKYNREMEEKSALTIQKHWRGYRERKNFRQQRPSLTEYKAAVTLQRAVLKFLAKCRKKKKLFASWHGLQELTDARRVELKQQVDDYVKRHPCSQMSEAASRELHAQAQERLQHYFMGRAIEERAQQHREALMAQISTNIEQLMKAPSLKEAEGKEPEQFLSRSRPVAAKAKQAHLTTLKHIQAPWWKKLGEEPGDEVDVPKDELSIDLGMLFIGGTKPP

[3] = biological target: T3, NPHP1-mCh-mito (UniProt O15259)
T3 sequence: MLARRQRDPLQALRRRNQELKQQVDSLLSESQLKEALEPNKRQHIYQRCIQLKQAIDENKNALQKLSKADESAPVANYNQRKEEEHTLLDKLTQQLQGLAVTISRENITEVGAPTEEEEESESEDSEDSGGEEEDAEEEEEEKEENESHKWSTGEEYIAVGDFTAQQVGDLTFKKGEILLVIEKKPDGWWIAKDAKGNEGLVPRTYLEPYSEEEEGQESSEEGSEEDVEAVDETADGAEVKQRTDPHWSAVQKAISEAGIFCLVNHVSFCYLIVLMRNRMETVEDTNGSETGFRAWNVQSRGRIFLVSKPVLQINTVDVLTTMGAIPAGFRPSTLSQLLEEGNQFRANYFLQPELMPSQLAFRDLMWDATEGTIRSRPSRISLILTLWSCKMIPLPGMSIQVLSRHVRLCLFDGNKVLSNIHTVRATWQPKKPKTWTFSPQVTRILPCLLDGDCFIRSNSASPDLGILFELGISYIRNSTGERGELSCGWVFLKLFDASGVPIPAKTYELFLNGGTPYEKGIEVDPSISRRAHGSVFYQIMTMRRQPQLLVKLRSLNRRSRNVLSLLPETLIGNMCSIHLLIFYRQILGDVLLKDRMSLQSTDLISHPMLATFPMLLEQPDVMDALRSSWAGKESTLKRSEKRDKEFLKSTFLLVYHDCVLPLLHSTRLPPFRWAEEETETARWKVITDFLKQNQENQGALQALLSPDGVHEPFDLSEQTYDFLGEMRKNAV

Binder	binding [1]	binding [2]	binding [3]
GFP-Nup35 (protein, UniProt Q8NFH5 1-326) MAAFAVEPQGPALGSEPMMLGSPTSPKPGVNAQFLPGFLMGDLPAPVTPQPRSISGPSVGVMEMRSPLLAGGSPPQPVVPAHKDKSGAPPVRSIYDDISSPGLGSTPLTSRRQPNISVMQSPLVGVTSTPGTGQSMFSPASIGQPRKTTLSPAQLDPFYTQGDSLTSEDHLDDSWVTVFGFPQASASYILLQFAQYGNILKHVMSNTGNWMHIRYQSKLQARKALSKDGRIFGESIMIGVKPCIDKSVMESSDRCALSSPSLAFTPPIKTLGTPTQPGSTPRISTMRPLATAYKASTSDYQVISDRQTPKKDESLVSKAMEYMFGW	binds	binds	no binding
GFP-Nup133 (protein, UniProt Q8WUM0 1-1156) MFPAAPSPRTPGTGSRRGPLAGLGPGSTPRTASRKGLPLGSAVSSPVLFSPVGRRSSLSSRGTPTRMFPHHSITESVNYDVKTFGSSLPVKVMEALTLAEVDDQLTINIDEGGWACLVCKEKLIIWKIALSPITKLSVCKELQLPPSDFHWSADLVALSYSSPSGEAHSTQAVAVMVATREGSIRYWPSLAGEDTYTEAFVDSGGDKTYSFLTAVQGGSFILSSSGSQLIRLIPESSGKIHQHILPQGQGMLSGIGRKVSSLFGILSPSSDLTLSSVLWDRERSSFYSLTSSNISKWELDDSSEKHAYSWDINRALKENITDAIWGSESNYEAIKEGVNIRYLDLKQNCDGLVILAAAWHSADNPCLIYYSLITIEDNGCQMSDAVTVEVTQYNPPFQSEDLILCQLTVPNFSNQTAYLYNESAVYVCSTGTGKFSLPQEKIVFNAQGDSVLGAGACGGVPIIFSRNSGLVSITSRENVSILAEDLEGSLASSVAGPNSESMIFETTTKNETIAQEDKIKLLKAAFLQYCRKDLGHAQMVVDELFSSHSDLDSDSELDRAVTQISVDLMDDYPASDPRWAESVPEEAPGFSNTSLIILHQLEDKMKAHSFLMDFIHQVGLFGRLGSFPVRGTPMATRLLLCEHAEKLSAAIVLKNHHSRLSDLVNTAILIALNKREYEIPSNLTPADVFFREVSQVDTICECLLEHEEQVLRDAPMDSIEWAEVVINVNNILKDMLQAASHYRQNRNSLYRREESLEKEPEYVPWTATSGPGGIRTVIIRQHEIVLKVAYPQADSNLRNIVTEQLVALIDCFLDGYVSQLKSVDKSSNRERYDNLEMEYLQKRSDLLSPLLSLGQYLWAASLAEKYCDFDILVQMCEQTDNQSRLQRYMTQFADQNFSDFLFRWYLEKGKRGKLLSQPISQHGQLANFLQAHEHLSWLHEINSQELEKAHATLLGLANMETRYFAKKKTLLGLSKLAALASDFSEDMLQEKIEEMAEQERFLLHQETLPEQLLAEKQLNLSAMPVLTAPQLIGLYICEENRRANEYDFKKALDLLEYIDEEEDININDLKLEILCKALQRDNWSSSDGKDDPIEVSKDSIFVKILQKLLKDGIQLSEYLPEVKDLLQADQLGSLKSNPYFEFVLKANYEYYVQGQI	binds	binds	no binding
EGFP-tagged Nup93 (protein, UniProt Q8N1F7 1-819) MDTEGFGELLQQAEQLAAETEGISELPHVERNLQEIQQAGERLRSRTLTRTSQETADVKASVLLGSRGLDISHISQRLESLSAATTFEPLEPVKDTDIQGFLKNEKDNALLSAIEESRKRTFGMAEEYHRESMLVEWEQVKQRILHTLLASGEDALDFTQESEPSYISDVGPPGRSSLDNIEMAYARQIYIYNEKIVNGHLQPNLVDLCASVAELDDKSISDMWTMVKQMTDVLLTPATDALKNRSSVEVRMEFVRQALAYLEQSYKNYTLVTVFGNLHQAQLGGVPGTYQLVRSFLNIKLPAPLPGLQDGEVEGHPVWALIYYCMRCGDLLAASQVVNRAQHQLGEFKTWFQEYMNSKDRRLSPATENKLRLHYRRALRNNTDPYKRAVYCIIGRCDVTDNQSEVADKTEDYLWLKLNQVCFDDDGTSSPQDRLTLSQFQKQLLEDYGESHFTVNQQPFLYFQVLFLTAQFEAAVAFLFRMERLRCHAVHVALVLFELKLLLKSSGQSAQLLSHEPGDPPCLRRLNFVRLLMLYTRKFESTDPREALQYFYFLRDEKDSQGENMFLRCVSELVIESREFDMILGKLENDGSRKPGVIDKFTSDTKPIINKVASVAENKGLFEEAAKLYDLAKNADKVLELMNKLLSPVVPQISAPQSNKERLKNMALSIAERYRAQGISANKFVDSTFYLLLDLITFFDEYHSGHIDRAFDIIERLKLVPLNQESVEERVAAFRNFSDEIRHNLSEVLLATMNILFTQFKRLKGTSPSSSSRPQRVIEDRDSQLRSQARTLITFAGMIPYRTSGDTNARLVQMEVLMN	no binding	no binding	no binding
